# This is one part of the list. At the low end of the ranking, values are background and their order means little.
# Target: T1, ETS1 (UniProt P14921)
# T1 sequence: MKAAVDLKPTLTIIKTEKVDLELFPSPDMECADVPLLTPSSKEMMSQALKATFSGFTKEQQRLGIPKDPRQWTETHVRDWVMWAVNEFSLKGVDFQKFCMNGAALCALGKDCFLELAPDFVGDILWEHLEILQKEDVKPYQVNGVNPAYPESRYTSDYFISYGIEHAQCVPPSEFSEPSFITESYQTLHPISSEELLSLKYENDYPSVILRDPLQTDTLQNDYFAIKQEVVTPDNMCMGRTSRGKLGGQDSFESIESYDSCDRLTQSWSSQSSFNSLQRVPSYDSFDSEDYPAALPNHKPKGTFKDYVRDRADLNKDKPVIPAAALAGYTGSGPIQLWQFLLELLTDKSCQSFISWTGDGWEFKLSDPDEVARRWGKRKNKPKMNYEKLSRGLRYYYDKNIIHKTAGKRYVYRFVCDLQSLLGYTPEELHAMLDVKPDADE
# Test: custom PBM
# Conditions: custom protein-binding microarray; buffer, salt, pH and temperature not stated; high values mean tight binding; double strand, one strand shown
row,Sequence,binding signal (log fluorescence intensity)
1,GATTAATTTCTGCTCTTATTCGCACGTGCCATAACAGTCTTGATTCGCTTGACGCTGCTG,8.42
2,CACAATTTTTACAGTAATGTAGGACGCGTAACTCCTGTCTTGATTCGCTTGACGCTGCTG,8.22
3,CGGAAGTGTCGTAAACGTGGGATATCCGGTTCTTCTGTCTTGATTCGCTTGACGCTGCTG,11.6
4,TGAAAAAGGCCCAGGGTAACACCGGAAGTGGGCTTAGTCTTGATTCGCTTGACGCTGCTG,11.8
5,CACAATTTTTACAGTAATGTAGCACGCGTAAATCCTGTCTTGATTCGCTTGACGCTGCTG,8.32
6,GCTTCTGCGGTGCATACCCCACCGGATGTGACCCCGGTCTTGATTCGCTTGACGCTGCTG,10.3
7,TGTCGGGTAAGGGGATGTAGATCACGTGAATGAAAAGTCTTGATTCGCTTGACGCTGCTG,8.25
8,TAAAGGGAAGACGGTTGTGCTAGTTCCGGGTATTAAGTCTTGATTCGCTTGACGCTGCTG,8.6
9,CTGGGACTTGACCCAACTGTGCCACGTGGGTCGTTTGTCTTGATTCGCTTGACGCTGCTG,8.21
10,GTGTATAGGATCCCATCCAACACACGTGTTAACATGGTCTTGATTCGCTTGACGCTGCTG,8.34
11,TAAAGGGACGACGGTTGTGGTAGTTCCGGGTATTAAGTCTTGATTCGCTTGACGCTGCTG,8.43
12,GCTGCTGCGGTGCATACCCCACCGGATGTGACCCGGGTCTTGATTCGCTTGACGCTGCTG,10.2
13,TCCGGCTACCAGCTCCACCCACTTCAGGCCTTGTGGGTCTTGATTCGCTTGACGCTGCTG,8.17
14,TAAAGGGAAGACGGTTGTGTTAGTTCCGGGTATTAAGTCTTGATTCGCTTGACGCTGCTG,8.47
15,GGAAAAAGGCCCAGGGTAACACCGGACGTGGGCTTAGTCTTGATTCGCTTGACGCTGCTG,8.8
16,GATTAATTTCTGCCCTTATTCGTACGTGCCATAACAGTCTTGATTCGCTTGACGCTGCTG,8.36
17,GTGTATAGGATCCCATCCAACACCCGTGTTAAAATGGTCTTGATTCGCTTGACGCTGCTG,8.24
18,CTGGGACTTGATCCAACTCTGCCACGTGGGTCGTTTGTCTTGATTCGCTTGACGCTGCTG,8.12
19,CGGAAGGGTCGTAAACGTCGGATATCCGGTTCTTCTGTCTTGATTCGCTTGACGCTGCTG,11.6
20,TCCGGCTACCAGCTCCACCCACTTCAGGTCTTGTAGGTCTTGATTCGCTTGACGCTGCTG,8.3
21,CACAATTTTTACAGTAATGTAGCTCGCGTAACTCCTGTCTTGATTCGCTTGACGCTGCTG,8.35
22,CGGAAGTGTCGTAAACGTCGGATATCCGGGTCTTCTGTCTTGATTCGCTTGACGCTGCTG,10.2
23,GCTGCTGCGGTGCATACCCCACCGGATGTGACTCCGGTCTTGATTCGCTTGACGCTGCTG,10.6
24,GCTGCTGCGGTGCATACCTCACCGGATGTGACCCCGGTCTTGATTCGCTTGACGCTGCTG,9.97
25,GCTGCTGCGGTGCATACCCCACCCGATGTGACCCCGGTCTTGATTCGCTTGACGCTGCTG,8.07
26,GATTAATTTCTGCCCTTATTCGCACGAGCCATAACAGTCTTGATTCGCTTGACGCTGCTG,8.21

row,Sequence,binding signal (log fluorescence intensity)
1,TAAAGGGAAGACGGTTGTGGTAGTTCCGGGTATTACGTCTTGATTCGCTTGACGCTGCTG,8.47
2,CTGGGACTTGACCCAACTCTACCACGTGGGTCGTTTGTCTTGATTCGCTTGACGCTGCTG,8.11
3,TACTGACTTATATATGCGAGTGCACATGAATAGACCGTCTTGATTCGCTTGACGCTGCTG,8.33
4,TACTGACTTATATATGCGAATGCACATGACTAGACCGTCTTGATTCGCTTGACGCTGCTG,8.23
5,TGCTGACTTATATATGCGAATGCACATGAATAGACCGTCTTGATTCGCTTGACGCTGCTG,8.14
6,CTGGGACTTGACCCAACTCTGCCACGTGGGTCGTTGGTCTTGATTCGCTTGACGCTGCTG,8.3
7,AGAAAAAGGCCCAGGGTAACACCGGAAGTGGGCTTAGTCTTGATTCGCTTGACGCTGCTG,11.9
8,CAGCATAGGACATCTTCCCTGAAGCAATTGATAACCGTCTTGATTCGCTTGACGCTGCTG,8.27
9,TCCGGCTACCAGCTCCACCCACTTCAGGCCTTGTCGGTCTTGATTCGCTTGACGCTGCTG,8.43
10,TAAAGGGAAGACGGTTGTGGTAGTTCTGGGTATTAAGTCTTGATTCGCTTGACGCTGCTG,8.17
11,GATTAATTTCTGCCCTTATTCGCACGTGCCATAATAGTCTTGATTCGCTTGACGCTGCTG,8.19
12,GGAACAAGGCCCAGGGTAACACCGGAAGTGGGCTTAGTCTTGATTCGCTTGACGCTGCTG,11.9
13,TTTCGGGTAAGGGAATGTAGATCACGTGAATGAAAAGTCTTGATTCGCTTGACGCTGCTG,7.9
14,CGGAAGTGTCGTAAATGTCGGATATCCGGTTCTTCTGTCTTGATTCGCTTGACGCTGCTG,11.9
15,GCTGCTGCGGTGCATACCCCACCGGTTGTGACCCCGGTCTTGATTCGCTTGACGCTGCTG,8.34
16,CAGCATAGGACTTCTTCCCTGAAGCAATGGATAACCGTCTTGATTCGCTTGACGCTGCTG,8.19
17,TAAAGGGAAGACGGTTGTGGTGGTTCCGGGTATTAAGTCTTGATTCGCTTGACGCTGCTG,8.48
18,CACAATTTTTACAGTAATGTAGCACGCGTGACTCCTGTCTTGATTCGCTTGACGCTGCTG,8.55
19,GCTGCTGCGGTGCATACCCCACCGGATGTAACCCCGGTCTTGATTCGCTTGACGCTGCTG,10
20,GTGTATAGGATCCCATCCAACAAACGTGTTAAAATGGTCTTGATTCGCTTGACGCTGCTG,8.24
21,GTGTATAGGATCCCATCCAACACACGTGTTAAAAGGGTCTTGATTCGCTTGACGCTGCTG,8.24
22,TCCGGCTGCCAGCTCCACCCACTTCAGGCCTTGTAGGTCTTGATTCGCTTGACGCTGCTG,8.34
23,CGGAAGTGTCGTAAACGTCGGATATACGGTTCTTCTGTCTTGATTCGCTTGACGCTGCTG,9.21
24,TAAAGGGAAGACGGTTGTGGTAGTTACGGGTATTAAGTCTTGATTCGCTTGACGCTGCTG,8.37
25,GATTAAATTCTGCCCTTATTCGCACGTGCCATAACAGTCTTGATTCGCTTGACGCTGCTG,8.29
26,TACTGACTTATATATGCGAATGCACATGAATAGACGGTCTTGATTCGCTTGACGCTGCTG,8.24

# From article PMC6602471
